Measurements published in US5256700A (priority 1990, dated 1993).
Read-outs that look alike come from different tables or passages of the source.

How the values were obtained:
[1] = tested on: Salmonella typhimurium TA 102; assay: microbe, parasite or virus in culture; conditions: Salmonella enterica
[2] = tested on: Salmonella typhimurium TA 102
Staphylococcus aureus = conditions: cited from earlier work

SMILES | IC50 [1] [µM] | IC50 [2] [mg] | anticarcinogenic activity higher by a factor than that of ascorbic acid [2] | anticarcinogenic activity higher by a factor than that of carnosol [2] | antibiotic activity against Staphylococcus aureus (Staphylococcus aureus) | anticarcinogenic activity compared with that of ascorbic acid [2]
O=C1O[C@H]([C@@H](O)CO)C(O)=C1O [Ascorbic acid, ascorbic acid] | 2700 | – | – | – | – | –
CC(C)c1cc2c(c(O)c1O)[C@@]1(C(=O)O)CCCC(C)(C)[C@@H]1CC2 [Carnosic acid] | 150 | 0.3 | approximately 15 | 50 | antibiotic against Staphylococcus aureus | –
CC(C)c1cc2c(c(O)c1O)[C@@]13CCCC(C)(C)[C@@H]1C[C@@H]2OC3=O [Carnosol, carnosol, reference compound] | 9300 | 17.8 | – | – | – | slightly weaker, but of an order comparable with that of ascorbic acid
